# Some of the results follow.
# Tested on: PF3D7_0420300 AP2 domain 1 (GST-tagged)
# Experiment: gcPBM binding intensity (ln(normalized median fluorescence intensity)); higher = stronger DNA binding
# How it was run: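 The highest Masliner-normalised natural-log median intensity across replicate spots of either probe orientation is reported as binding intensity. GST-tagged P. falciparum DNA-binding domains expressed in E. coli were applied for 1 h to an Agilent 4 × 180k array of primer-extended double-stranded 36-bp intergenic genomic probes plus negative controls, and bound protein was detected with Alexa488 anti-GST antibody and scanned at 488 nm.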
row,Sequence,gcPBM binding intensity (ln)
1,ATAACAATTATTTATCTACACACTTTTATGTTATTT [CACACA_site7886],9.74
2,AATGGCAAAATAGGCACACACACATATACAGATATA [CACACA_site4726],10.1
3,AAATGCGCCATGTGTACACATATATATATATATATA [CACACA_site4649],9.48
4,TACATATATAAAAATTGTACACTTCATAAGAAAAAA [XGTACX_site4347],9.14
5,TTAAATAAGTTCTTCACACATATATATATATATATA [CACACA_site4742],9.22
6,AAAATTTTTTAACACTGTACTTGTAATATTAAAACT [XGTACX_site8369],9.14
7,GTTTTAAAATTAAATATTATGGCATAATTCAAGAAA [GTGCAC_negctrl_site721],8.88
8,AAAAAAATTCTTGGCGCACACACTTTAAAAATTAAA [CACACA_site597],9.24
9,AAGGATTACAAAAAAAGTACAAATGGATTTTTTCCC [XGTACX_site8905],9.16
10,CTTACAAATAAACAACGTACTTATTCGAATTATGCT [XGTACX_site2431],9.23
11,CATACAGACGAACACACACACATATAAATATAAATA [CACACA_site6443],9.91
12,AAATATTATATATATACACACACACCGGCATGCACA [CACACA_site7916],9.97
13,AACCACATGGTGTAATGTACATTACCTTAACAATAA [XGTACX_site3055],9.23
14,TATTATTTTTTTTTTTGTACATATATGTATATATAT [XGTACX_site8471],9.13
15,TATAATAAAATTGGTAGTACATTAATTTATGTATAG [XGTACX_site3059],9.14
16,TTTTTTTTTTCTTAGGTGCAAAAAATAAGTATATAT [GTGCAC_site9394],8.99
17,AAAAAAAAAAGAACCCGTACATAAATAATATATATA [XGTACX_site164],9.62
18,TTAATTACATGTTATTGTACGTATTTTCTATCTATC [XGTACX_site844],9.41
19,AAAAAAAAAAAAGAAACACACACATTTGTATATAAT [CACACA_site8648],9.84

row,Sequence,gcPBM binding intensity (ln)
1,TATAGTTATATTAGAAGTACTTCATTTTAACATATT [XGTACX_site7101],9.14
2,GAAACATAAAAATATATTGAAATAGTATCATGGGTA [CACACA_negctrl_site352],9.43
3,TTTTTTTTGTATTAATGTACATATAACTTTTTTTTT [XGTACX_site7903],9.2
4,TAAAAAATAAAATAATGTACATATGAATTATATATT [XGTACX_site8398],9.24
5,CATTATAAGAAACACACACACATATATATATATATA [CACACA_site1051],9.73
6,AAAAAGAAGAATATATGTACACAAAATTTATGAGTT [XGTACX_site8609],9.43
7,AAAAAAAAAAATATATTATTTTACTTGTTTATTTTA [CACACA_negctrl_site1447],9.07
8,TAAACCAAACAATTATGTATAAGATGTATATATATA [GTGCAC_negctrl_site438],9.37
9,AAATTCTTAACCCAACGTACATATAATAAATTCTTA [XGTACX_site8538],9.1
10,ATTCCCTTAAGAAACTGTACAAAACTTTCTTCGATT [XGTACX_site775],9.11
11,TATACATAAATTATATGTACTGAAAATACATAATTA [XGTACX_site3626],8.99
12,GTGTGTGTATATATTTGTACATATATTTAAACATAT [XGTACX_site1074],9.73
13,GGTAGGTGGATATATACACACATATATTATAGATAT [CACACA_site7021],9.65
14,CACAGATATATACATACACACATATATACACATATA [CACACA_site6323],9.72
15,ATCGAGAAAAATAAAATAATACAATTTCTTTAAATA [XGTACX_negctrl_site162],8.96
16,TGACATAAATTTAATACACACACAAAGAAAAAAAAA [CACACA_site9354],9.9
17,TTTAAAAAAAAAAAAAAAAATTCTACATGTAATTTA [CACACA_negctrl_site1205],8.64
18,AGAAGAAAAGAAATATGTACATAAACGTCTGAACTA [XGTACX_site1699],9.37
19,ATAACAAATATGATAGCATGCTACATATTACAACTT [TGCATGCA_site524],9.38

row,Sequence,gcPBM binding intensity (ln)
1,GTTCCATATATTACATGTACATATTTTTACATTTAA [XGTACX_site660],9.63
2,TGATTAATAGCAGGTAGTACTATAATAATATAAATA [XGTACX_site2776],9.16
3,TTTAAACTAGAACAAGTGCAGATATGTATAATAATA,9.17
4,AAGAAAAGATATATATATAAATATATATATATATAT [TGCATGCA_negctrl_site353],9.01
5,ATTTATTTTTATCAAGCATGCATAAAAAATAAATTA [TGCATGCA_site440],8.74
6,TATTTTTAGAAAATAAAGAAGGAGAATTGAAAATAT [CACACA_negctrl_site361],9.21
7,TTTTATTTTGGAACGTGTACATATAATTATTTATTG [XGTACX_site8094],9.32
8,AAAATATATACAAGCAAACACACGTAATATATATTA [CACACA_site2152],9.53
9,AGGTAGTTCTGTATCACACACATATAAATATAAATA [CACACA_site7110],9.44
10,GCATAAAATATGATCGCACACTGTTTAAAATACTTA [CACACA_site828],9.36
11,ATATTACTAATTAATGGTACACGTTATAATAAACTA [XGTACX_site7051],9.23
12,ATACCTTCTTCATTCACACATATACGTAAAATGTTC [CACACA_site5657],9.4
13,ATATATCACATGAACATTAAAAAAAAAAAAGAGGGG [TGCATGCA_negctrl_site187],9.63
14,GGAACATATGAACTCACACACATTTTCACTTAAATA [CACACA_site3684],9.64
15,TTTATACAATTAGACACACACAAAAAGTATAAATAT [CACACA_site6637],9.77
16,ATATCACATTCCACGGTACACACTAATAGAAAAATC [CACACA_site9204],9.65
17,AAACCTTTAGAAAATCGTACAAAACATAACCACCTA [XGTACX_site1098],9.32
18,ATTTTTTTTTTTTGTTTTTTCTTACAAATTAAATGA [CACACA_negctrl_site1457],9.25

# From the supplement of paper PMC11417369
